Test results as given in PubChem BioAssay AID588342 (National Center for Advancing Translational Sciences (NCATS), 2011).
The campaign covered roughly 360,000 compounds. About 25,000 (6.9%) were called active. The shares of active, inactive and inconclusive entries below differ from those in the screen. The call rests on the fitted dose curve; in most records, active means well fitted inhibition curve with a large enough effect; inconclusive means small, poorly fitted or top-dose-only effect; inactive means flat fitted curve, though single readings scatter. Potencies of inconclusive entries are doubtful fits and often do not repeat.

These compounds were tested against Luciferin 4-monooxygenase (Photinus pyralis) (UniProt P08659) (assay: qHTS profiling assay for firefly luciferase inhibitor/activator using purifed enzyme and Km concentrations of substrates (counterscreen for miR-21 project)). Settings: purified FLuc, luminescence inhibition; series mostly up to 57.5 µM; activity change, negative = inhibition: at the top concentration.
Chain of UniProt P08659 (P08659 whole entry, looked up): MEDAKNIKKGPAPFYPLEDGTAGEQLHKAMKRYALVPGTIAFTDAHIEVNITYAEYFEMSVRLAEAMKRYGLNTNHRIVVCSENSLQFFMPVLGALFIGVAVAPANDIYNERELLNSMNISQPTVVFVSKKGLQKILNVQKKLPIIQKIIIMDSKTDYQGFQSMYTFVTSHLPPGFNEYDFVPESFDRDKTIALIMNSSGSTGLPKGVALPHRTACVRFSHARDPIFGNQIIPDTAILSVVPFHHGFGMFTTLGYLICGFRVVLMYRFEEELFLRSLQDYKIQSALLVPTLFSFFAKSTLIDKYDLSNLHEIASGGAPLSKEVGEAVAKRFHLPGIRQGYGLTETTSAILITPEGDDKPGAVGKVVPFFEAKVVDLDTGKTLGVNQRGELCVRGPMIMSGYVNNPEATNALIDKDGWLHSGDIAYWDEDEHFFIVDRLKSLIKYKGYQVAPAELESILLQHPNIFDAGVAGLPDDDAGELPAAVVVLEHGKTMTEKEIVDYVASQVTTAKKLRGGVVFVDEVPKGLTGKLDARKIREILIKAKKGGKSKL
Procedure, shortened: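 Purified P. pyralis luciferase (10nM final) with 10uM D-luciferin and 10uM ATP (Km levels) in 50mM Tris acetate pH 7.5, 10mM Mg acetate, 0.01% Tween-20, 0.05% BSA; qHTS 6-point titration, ~60 µM downward; luminescence read.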
Further: nearly all actives have a fitted effect of over 55% in size.
Potency means the concentration at half of the fitted maximal effect; tags describe the fitted curve by direction and shape.
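Wherever activity change, negative = inhibition is given: plate controls were vehicle for no effect and reference inhibitor for full effect.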

SMILES | Potency | activity change, negative = inhibition
Cc1ccc(NC(=O)C2CC3CCC2C3)c(Br)c1 (configuration not stated) | active: 16.9 µM | 
CCOC(=O)CC1C(=O)NCCN1C(=O)c1ccc(Cl)cc1Cl (configuration not stated) |  | inactive: 0.239%
CC1CCN(S(=O)(=O)c2cn(CC(=O)N3CCN(c4cccc(C(F)(F)F)c4)CC3)cn2)CC1 |  | inactive: -0.194%
Fc1ccccc1-n1ncc2c1ncn1nc(Cc3ccccc3)nc21 | active: 6.01 µM | 
O=C(Cc1ccccc1)Nc1ccccc1C(=O)O | inconclusive: 26.9 µM [inhibitor, single point] | 
COc1ccccc1OCc1ccc(C(=O)N2N=C(C(F)F)CC2(O)C(F)F)o1 (configuration not stated) | inconclusive: 30.1 µM [inhibitor, single point] | 
COc1cccc(NC(=O)c2ccc3c(SCC(=O)O)c4c(nc3c2)CCCC4)c1 | inconclusive: 37.9 µM [inhibitor, single point] | 
COc1cccc(S(=O)(=O)Nc2ccc3c(c2)OCCO3)c1 | inconclusive: 23.9 µM [inhibitor, partial curve, poor fit] | 
COc1ccccc1Nc1nnc(SCC(=O)NC2CC2)s1 |  | inactive: -9.27%
CN(Cc1c(F)cccc1Cl)C(=O)CNC(=O)c1ccc2c(c1)OCO2 | inconclusive: 37.9 µM [inhibitor, partial curve, poor fit] | 
Nc1nccc(/C=C/c2ccc(Cl)cc2)n1 | active: 6.01 µM | 
C/C(=N\NC(=O)c1ccc2c(c1)OCCO2)c1ccccc1 | active: 0.379 µM | 
Cc1ccc2c(c1)-c1c(c(C(=O)N3CCN(c4cc(Cl)ccc4C)CC3)nn1C)CS2 |  | inactive: 2.46%
C=CCc1cccc(/C=N/NC(=O)c2ccc3nc[nH]c3c2)c1O | active: 16.9 µM | 
CSc1ccc(N/N=C(/C#N)S(=O)(=O)C(C)(C)C)cc1 | inconclusive: 19 µM [inhibitor, single point] | 
O=C(c1ccco1)N1CCN(S(=O)(=O)c2cccc(Cl)c2)CC1 |  | inactive: 5.41%
Cc1cccc(NC(=O)C2COc3ccccc3O2)n1 (configuration not stated) | inconclusive: 37.9 µM [inhibitor, single point] | 
Cc1ccc(-c2nn(-c3ccccc3)cc2/C=N/NS(=O)(=O)c2ccccc2)cc1 | inconclusive: 21.3 µM [inhibitor, partial curve] | 
CC(=O)N1CCc2cc(Br)cc(S(=O)(=O)N3CCN(c4cccc(C)c4)C(C)C3)c21 (configuration not stated) |  | inactive: -5.22%
O=C(NCCc1csc(-c2cccnc2)n1)c1ccc(F)c(F)c1 | inconclusive: 30.1 µM [inhibitor, partial curve, poor fit] | 
CN(C)S(=O)(=O)N1CCC(Oc2ccc(C(=O)NC3Cc4ccccc4C3)cc2)CC1 | inconclusive: 26.9 µM [inhibitor, single point] | 
O=C(COc1ccc(Cl)cc1)Nc1nc(-c2ccncc2)cs1 | inconclusive: 6.01 µM [inhibitor, partial curve, poor fit] | 
CC(C)N1CCC(NC(=O)Nc2ccccc2)CC1 |  | inactive: 0.545%
C/C(=N\NC(=O)Cc1cccn1C)c1ccc2ccccc2c1 | inconclusive: 16.9 µM [inhibitor, partial curve] | 
CCOc1ccc(C(=O)Nc2ccccc2OC(F)F)cc1 | inconclusive: 23.9 µM [inhibitor, single point] | 
Cn1cnc2c(N/N=C/c3cccs3)ncnc21 | active: 8.49 µM | 

SMILES | Potency | activity change, negative = inhibition
COc1cc(C(=O)Nc2ccc3c(c2)ncn3C)cc(OC)c1OC | inconclusive: 26.9 µM [inhibitor, partial curve, poor fit] | 
CSc1ccccc1NC(=O)Cn1nc([N+](=O)[O-])c(Cl)c1C | inconclusive: 21.3 µM [inhibitor, partial curve] | 
Oc1ccc(NCc2ccc(OCc3ccccc3Cl)cc2)cc1 | active: 26.9 µM | 
COc1ccc(-c2nnc(NC(=O)c3cccs3)s2)c(OC)c1 | inconclusive: 0.426 µM [inhibitor, full curve] | 
Fc1cccc2sc(N3CCOCC3)nc12 | inconclusive: 26.9 µM [inhibitor, single point] | 
C/C(N)=C(/C#N)C(=O)COC(=O)CNC(=O)c1ccc(Cl)cc1Cl | inconclusive: 19 µM [inhibitor, single point] | 
CCCC(=O)OCCNc1cc(Sc2nc3ccccc3[nH]2)c2nonc2c1[N+](=O)[O-] | inconclusive: 6.75 µM [inhibitor, partial curve] | 
Cc1ccc(Cn2c(CCCNC(=O)C3CCCCC3)nc3ccccc32)cc1 |  | inactive: -16.9%
COC(=O)c1sc(NC(=O)CSc2n[nH]c(N)n2)c(C(=O)OC)c1C |  | inactive: -8.77%
COc1ccc(-c2nc3c(s2)CN(S(C)(=O)=O)CC3)cc1OC | inconclusive: 21.3 µM [inhibitor, single point] | 
Cc1cccc(NC(=O)Cn2c(C(F)(F)F)nc3ccccc32)c1C |  | inactive: 3.57%
CCOC(=O)c1cccc(NC(=O)Nc2ccc(OCC)cc2)c1 | active: 2.69 µM | 
O=C(CN(Cc1ccccc1F)S(=O)(=O)c1ccc(Cl)cc1)NCC1CCCO1 (configuration not stated) |  | inactive: 0.353%
Cc1cc(C(C)(C)C)cc(C)c1Cn1c2[n+](c3ccc(C(F)(F)F)cc31)CCCCC2 |  | inactive: 1.82%
c1cc(SSc2ccncc2)ccn1 | inconclusive: 26.9 µM [inhibitor, single point] | 
CN(C)c1ccc(/C=N/n2c(COc3ccccc3)n[nH]c2=S)cc1 | inconclusive: 26.9 µM [inhibitor, single point] | 
O=C(NCC1CCCN1S(=O)(=O)c1cccs1)c1c(F)cccc1F (configuration not stated) |  | inactive: -0.682%
O=C(CN1C(=O)C2(SCC(=O)N2c2ccc(F)c(F)c2)c2ccccc21)Nc1ccccc1F (configuration not stated) |  | inactive: 3.25%
COc1ccc(/C(N)=N/OC(=O)CCCc2ccccc2)cc1 | inconclusive: 26.9 µM [inhibitor, single point] | 
CN(C)C(CNC(=O)CCCN1C(=O)c2cccc3cccc(c23)C1=O)c1ccccc1 (configuration not stated) |  | inactive: -0.0142%
O=C1c2ccccc2S(=O)(=O)N1CCOc1ccc(F)cc1 | inconclusive: 26.9 µM [inhibitor, single point] | 
CC(=O)Oc1ccc(-c2nc3cc(Cl)ccc3c(=O)o2)cc1 |  | inactive: -11.5%
O=C(Cc1csc(NC(=O)Nc2ccc(Cl)cc2)n1)NC1CCCC1 | active: 4.78 µM | 
COCC(=O)Nc1nnc(COc2ccccc2)s1 |  | inactive: -10.1%
COc1ccc(OC)c(NC(=O)CN2CCCN(Cc3cc(C)ccc3C)S2(=O)=O)c1 |  | inactive: -1.23%
CCn1c(C)cc(/C=C2/SC(=S)NC2=O)c1C | active: 4.78 µM | 

SMILES | Potency | activity change, negative = inhibition
Nc1nc(NC(=O)/C=C\C(=O)O)nn1-c1ccccc1 | inconclusive: 23.9 µM [inhibitor, single point] | 
COc1ccc(-c2cc(C(F)(F)F)nc(SCC(=O)NCc3ccc(Cl)cc3)n2)cc1 |  | inactive: -3.89%
Cc1ccc(CNC(=O)CN2CCN(Cc3ccc(F)cc3)C2=O)cc1 |  | inactive: -10.9%
CC(c1ccccc1)N1C(=O)c2ccc(C(=O)Nc3ccccc3C(=O)O)cc2C1=O (configuration not stated) | active: 23.9 µM | 
Cc1ccc(Nc2nc(NCCO)c3ccccc3n2)cc1C | active: 7.57 µM | 
Cc1cc2nc(-c3cccc(NC(=O)COc4ccc(Cl)c(C)c4)c3)oc2cc1C | active: 1.9 µM | 
CC(C)(C)NC(=O)CSc1nc(N)c(-c2ccccc2)c(=O)[nH]1 |  | inactive: 2.13%
N/C(=N\OC(=O)Cc1ccc(-c2ccccc2)cc1)c1ccccn1 | inconclusive: 16.9 µM [inhibitor, partial curve] | 
CCC(=O)Nc1ccc(N2CCC(C)CC2)cc1 | inconclusive: 23.9 µM [inhibitor, single point] | 
CC(O)CSc1nc2c(c(=O)[nH]c(=O)n2C)n1Cc1ccccc1Cl (configuration not stated) |  | inactive: 0.0739%
CC(=O)Nc1ccc(-c2csc(-c3cccnc3)n2)cc1 | active: 7.57 µM | 
CCOc1ccc(NC(=O)CN2C(C(=O)OC)=C(c3ccccc3)c3cc(Cl)ccc3S2(=O)=O)cc1 |  | inactive: 0.15%
Cc1ccc2nc(SCC(=O)Nc3cccc(S(=O)(=O)N(C)C)c3)[nH]c2c1 | inconclusive: 30.1 µM [inhibitor, single point] | 
COc1cc(C(=O)Nc2cc(C)ccn2)ccc1OCC(=O)N1CCOCC1 | inconclusive: 21.3 µM [inhibitor, partial curve] | 
O=C(Oc1csc(=S)n1C(=O)c1ccccc1)c1ccccc1 | inconclusive: 10.7 µM [inhibitor, partial curve] | 
COc1cccc(CN(C)C(=O)CNC(=O)c2ccc(-c3ccccc3)cc2)c1OC | inconclusive: 37.9 µM [inhibitor, partial curve, poor fit] | 
CCOC(=O)c1ccccc1NC(=O)CSc1cn(CC(=O)N2CCOCC2)c2ccccc12 |  | inactive: -9.04%
O=C(COC(=O)CCCOc1ccc(Cl)cc1Cl)NCc1ccc(F)cc1 | inconclusive: 37.9 µM [inhibitor, single point] | 
CC(=O)c1ccc(NC(=O)c2cc(CC(C)C)nc3ccccc23)cc1 | inconclusive: 37.9 µM [inhibitor, single point] | 
CCOC(=O)c1cccc(NC(=O)c2cncc(Br)c2)c1 | inconclusive: 16.9 µM [inhibitor, partial curve, poor fit] | 
Cc1ccccc1-c1nnc(SCc2ccccc2F)o1 | active: 1.9 µM | 
O=C(CCCCn1c(=S)[nH]c2ccsc2c1=O)NCc1ccc2c(c1)OCO2 | inconclusive: 37.9 µM [inhibitor, partial curve, poor fit] | 
COc1cc(/C=C/C(=O)Oc2coc(CSc3ncccn3)cc2=O)cc(OC)c1OC |  | inactive: -6.29%
CC(C)n1nc(C(=O)Nc2ccc3c(c2)OCO3)c2ccccc2c1=O | inconclusive: 10.7 µM [inhibitor, partial curve, poor fit] | 
Cc1nn(-c2ccc(N3CCCC3)nn2)c(C)c1CCC(=O)NCc1ccc(OC(C)C)cc1 |  | inactive: 5.09%
